Test results taken from PubChem BioAssay AID2060616 (Molecular Pharmacology Branch, DTP, NCI, 2025).
Not every entry of the source has a single result; some have several. The other results are left out here. There may be further records. Results that share an entry are repeats across runs, samples, wells, individuals or studies. A date in brackets names the month of the test.

System: 377384-186-R-J1-PDC complex spheroid viability
Experiment: Anticancer human tumor 377384-186-R-J1-PDC patient-derived pancreatic carcinoma cell line growth inhibition [CLK]
Description: A high-throughput screen of multi-cell type tumor spheroids was designed to identify active combinations of […] and targeted small molecules. Complex spheroids include a stromal component modeled by human endothelial cells (HUVEC) and fibroblasts modeled by human mesenchymal stem cells (MSCs). The concentration ranges selected for each drug and investigational agent were based upon clinically achievable concentrations if the clinical Cmax of the agent was known.
Compounds. The drugs and investigational agents: cirtuvivint (SM08502; NSC835563), CC-671 (NSC850746), vemurafenib (NSC761431), tapotoclax (NSC804041), sotorasib (NSC818433), adagrasib (NSC831453), MRTX-1133 (NSC836407), BAY2416964 (NSC825713), copanlisib (NSC816437), inavolisib (NSC800729), abemaciclib (NSC768073), osimertinib (NSC779217), entinostat (NSC756642), eltanexor (KPT-8602, NSC794443), venetoclax (NSC766270), ceralasertib (NSC777638), bortezomib (NSC756655), olaparib (NSC753686), talazoparib (NSC767125), alisertib (NSC759677), peposertib (NSC802822), gemcitabine (NSC613327), 5-fluorouracil (NSC19893), SN-38 (NSC673596), oxaliplatin (NSC266046), paclitaxel (NSC125973), and doxorubicin (NSC123127), were obtained from the National Cancer Institute (NCI) Developmental Therapeutics Program Chemical Repository. […] If the clinical Cmax for an agent had not been determined, the highest concentration tested was 10 microM. […]
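Further: spheroids exposed to agents for 7 days before reading.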
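Wherever viability, T/C is given: luminescence signal used as a stand-in for viable cells.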

Q: How did the IC50 (compound alone) turn out when `CC(Nc1ccc2c(c1)OCCn1cc(N3C(=O)OCC3C(F)F)nc1-2)C(N)=O` (configuration not stated) was run?
A: > 10 µM [2023-07] and 718 nM [2023-08]

Q: For `CC1(C)CCC(CN2CCN(c3ccc(C(=O)NS(=O)(=O)c4ccc(NCC5CCOCC5)c([N+](=O)[O-])c4)c(Oc4cnc5[nH]ccc5c4)c3)CC2)=C(c2ccc(Cl)cc2)C1`, which viability, T/C (compound alone 10 µM, stronger effect = lower value) is on record?
A: 7.01% [2023-07] and 109% [2023-08]
